Assay results: the supplement of paper PMC9446081
In all, about 39,000 compounds went through this assay and about 220 (0.56%) showed activity. The list shows a part of the results.
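Note: static incubation at 37 °C against the wild-type strain, values averaged over two biological replicates.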

Each compound was assayed on Escherichia coli K-12 BW25113 (assay: relative growth (OD600 normalised to plate interquartile mean) (fraction); higher = less growth inhibition, active = 0.2 or less). Conditions: 50 µM; LB; incubation time: overnight (16-24 h).
`C[C@H]1CN([C@@H](C)CO)C(=O)c2cc(C#CCC3CCCC3)cnc2O[C@H]1CN(C)C(=O)c1cnccn1` was tested, and the relative growth was inactive: 0.999. In the case of `CCc1ccc(NC(=O)C2CCN(S(=O)(=O)c3c(C)[nH]c(=O)[nH]c3=O)CC2)cc1`, the relative growth is reported as inactive: 1.01. For `C[C@H]1CN([C@@H](C)CO)C(=O)Cc2cc(NC(=O)CCCCCC(=O)Nc3ccccc3N)ccc2O[C@H]1CN(C)Cc1ccc(-c2ccccc2)cc1`, the relative growth was inactive: 0.991. With `O=C(CCCCC(=O)N/N=C/[C@H](O)[C@H](O)[C@@H](O)[C@@H](O)CO)NO` the relative growth was inactive: 1.01. `CCCN(C)C[C@@H]1OCCCC[C@@H](C)Oc2ccc(NC(=O)C3CCCCC3)cc2C(=O)N([C@@H](C)CO)C[C@@H]1C` was tested, and the relative growth was inactive: 0.995. In the case of `C[C@@H]1CN([C@@H](C)CO)C(=O)c2cccc(NC(=O)c3cnccn3)c2O[C@H]1CN(C)S(C)(=O)=O`, the relative growth is reported as inactive: 1.03. For `CCCC(C(=O)OCCN(CC)CC)(c1ccccc1)c1ccccc1.Cl`, the relative growth was inactive: 0.943. `C[C@@H]1CN([C@@H](C)CO)C(=O)c2cccc(NC(=O)c3ccncc3)c2O[C@H]1CN(C)S(=O)(=O)c1cccs1` was tested, and the relative growth was inactive: 0.986. `C[C@H]1CN([C@@H](C)CO)S(=O)(=O)c2ccc(-c3cccc(C(=O)N(C)C)c3)cc2O[C@H]1CN(C)C(=O)Cc1ccccn1` was tested, and the relative growth was inactive: 0.984. With `COc1ccc(NC(=O)Nc2ccc3c(c2)C(=O)N([C@@H](C)CO)C[C@@H](C)[C@H](CN(C)S(=O)(=O)c2ccc(Cl)cc2)OCCCC[C@@H](C)O3)cc1` the relative growth was inactive: 0.975. In the case of `Cc1ccc(S(=O)(=O)N[C@@H]2CC[C@@H](CCNC(=O)CN3CCOCC3)O[C@@H]2CO)cc1`, the relative growth is reported as inactive: 1.01. For `O=C(O)[C@H]1C2C(=O)N(C3CC3)C[C@]23C=C[C@H]1O3` (stereo partly specified), the relative growth was inactive: 1.01. For `C[C@H](CO)N1C[C@H](C)[C@@H](CN(C)Cc2ccc(C(=O)O)cc2)OCCCC[C@H](C)Oc2ccc(NS(=O)(=O)c3ccccc3)cc2C1=O`, the relative growth was inactive: 0.973. With `COc1ccc(COC[C@]23N=C4SCC(=O)N4[C@H](c4ccccc4O2)[C@H]3COC(=O)NCCCCCC(=O)NO)cc1` the relative growth was inactive: 0.912. In the case of `C[C@@H]1CN([C@@H](C)CO)S(=O)(=O)c2ccc(C#CCC3CCCC3)cc2O[C@@H]1CN(C)C(=O)CN(C)C`, the relative growth is reported as inactive: 0.958. `C[C@H]1CN([C@@H](C)CO)C(=O)c2cc(/C=C/c3ccccc3)cnc2O[C@H]1CN(C)C(=O)Nc1ccc(C(F)(F)F)cc1` was tested, and the relative growth was inactive: 0.978. With `CO[C@H]1CN(C)C(=O)c2cc(NC(=O)Nc3ccccc3F)ccc2OC[C@H](C)N(CCC(F)(F)F)C[C@@H]1C` the relative growth was inactive: 1.02. In the case of `Cc1ccc(S(=O)(=O)Nc2ccc3c(c2)C(=O)N(C)[C@H]2CC[C@@H](CC(=O)NCCc4ccncc4)O[C@H]2CO3)cc1`, the relative growth is reported as inactive: 0.985. In the case of `C[C@H](CO)N1C[C@H](C)[C@@H](CN(C)CC2CCOCC2)Oc2ncc(C#CCc3ccccc3)cc2C1=O`, the relative growth is reported as inactive: 0.993. In the case of `Cc1noc(C)c1S(=O)(=O)Nc1ccc2c(c1)C(=O)N([C@H](C)CO)C[C@H](C)[C@H](CN(C)Cc1ccc(-c3ccccc3)cc1)O2`, the relative growth is reported as inactive: 0.965. With `CO[C@H]1CN(C)C(=O)c2cc(NC(=O)c3ccccc3)ccc2OC[C@H](C)N(C(=O)CN(C)C)C[C@H]1C` the relative growth was inactive: 0.982. In the case of `C/C=C/c1cnc2c(c1)C(=O)N([C@H](C)CO)C[C@@H](C)[C@H](CN(C)S(=O)(=O)c1ccc(OC)cc1)O2`, the relative growth is reported as inactive: 1.02. With `CCCCNC(=O)NS(=O)(=O)c1ccc(C)cc1` the relative growth was inactive: 0.963. `c1ccc2n[nH]nc2c1` was tested, and the relative growth was inactive: 0.968. For `CN(C)c1ccc(CN)cn1`, the relative growth was inactive: 0.992. For `COc1ccc(NC(=O)Nc2ccc3c(c2)C(=O)N([C@@H](C)CO)C[C@@H](C)[C@@H](CN(C)C(=O)c2ccccc2)OCCCC[C@@H](C)O3)cc1`, the relative growth was inactive: 0.978. With `C[C@@H]1CN([C@@H](C)CO)S(=O)(=O)c2ccc(C#Cc3ccccc3)cc2O[C@@H]1CN(C)C(=O)Cc1ccccn1` the relative growth was inactive: 0.988. With `Cc1noc(C)c1NC(=O)Nc1ccc2c(c1)CC(=O)N([C@H](C)CO)C[C@@H](C)[C@H](CN(C)Cc1ccc(Oc3ccccc3)cc1)O2` the relative growth was inactive: 0.889. In the case of `CN(C)N=Nc1[nH]cnc1C(N)=O`, the relative growth is reported as inactive: 0.387. `CC1(C)OC2CC3C4CC(F)C5=CC(=O)C=CC5(C)C4(F)C(O)CC3(C)C2(C(=O)CO)O1` (stereo unspecified) was tested, and the relative growth was inactive: 1.19. With `C[C@@H]1CN([C@H](C)CO)C(=O)c2cc(NS(=O)(=O)c3ccccc3)ccc2O[C@@H](C)CCCCO[C@@H]1CN(C)C(=O)NC1CCCCC1` the relative growth was inactive: 0.987. In the case of `COc1ccc(NC(=O)N(C)C[C@@H]2OCCCC[C@@H](C)Oc3ccc(NS(=O)(=O)c4ccc(OC)cc4)cc3C(=O)N([C@@H](C)CO)C[C@@H]2C)cc1`, the relative growth is reported as inactive: 1.02. In the case of `O=C(N[C@H]1CC[C@H](CC(=O)N2CCOCC2)O[C@H]1CO)c1ccccn1`, the relative growth is reported as inactive: 0.989. For `C[C@@H]1CN([C@H](C)CO)C(=O)c2cc(NS(=O)(=O)c3cccs3)ccc2O[C@@H](C)CCCCO[C@H]1CN(C)C(=O)C1CCCCC1`, the relative growth was inactive: 0.986. With `CC(C)NC(=O)Nc1ccc2c(c1)CC(=O)N([C@H](C)CO)C[C@@H](C)[C@@H](CN(C)Cc1ccc(C(=O)O)cc1)O2` the relative growth was inactive: 0.994. `C[C@H]1CCCCO[C@H](CN(C)Cc2ccc(C(F)(F)F)cc2)[C@@H](C)CN([C@@H](C)CO)C(=O)c2cc(NS(=O)(=O)c3cccs3)ccc2O1` was tested, and the relative growth was inactive: 0.992. `CC1=C(C(=O)O)N2C(=O)[C@H](NC(=O)[C@@H](N)c3ccccc3)[C@H]2SC1` was tested, and the relative growth was inactive: 1.02. In the case of `C[C@@H]1CCCCO[C@H](CN(C)S(=O)(=O)c2ccc(F)cc2)[C@@H](C)CN([C@@H](C)CO)C(=O)c2cc(NC(=O)Nc3ccc4c(c3)OCO4)ccc2O1`, the relative growth is reported as inactive: 1.05. With `Cc1ccc(S(=O)(=O)Nc2ccc3c(c2)C(=O)N([C@H](C)CO)C[C@H](C)[C@H](CN(C)C(=O)Nc2ccc4c(c2)OCO4)OCCCC[C@H](C)O3)cc1` the relative growth was inactive: 1.01. `CC(C)C#Cc1ccc2c(c1)O[C@H](CN(C)C(=O)c1cccc(F)c1)[C@H](C)CN([C@@H](C)CO)S2(=O)=O` was tested, and the relative growth was inactive: 1.01. In the case of `CCS(=O)(=O)Nc1ccc2c(c1)C(=O)N(C)[C@@H]1CC[C@@H](CC(=O)N[C@H]3CCN(Cc4ccccc4)C3)O[C@@H]1CO2`, the relative growth is reported as inactive: 1.01. `C[C@@H]1CN([C@@H](C)CO)C(=O)c2cc(NC(=O)Nc3cccc4ccccc34)ccc2O[C@@H](C)CCCCO[C@H]1CN(C)Cc1ccc(Cl)c(Cl)c1` was tested, and the relative growth was inactive: 1.02. In the case of `COc1c(O[C@@H]2O[C@H](CO)[C@@H](O)[C@H](O)[C@H]2O)cc2c(c1OC)-c1ccc(SC)c(=O)cc1[C@@H](NC(C)=O)CC2`, the relative growth is reported as inactive: 0.751. With `COc1ccc(CN(C)C[C@H]2OCCCC[C@H](C)Oc3ccc(NC(=O)Nc4ccc(OC)cc4)cc3C(=O)N([C@H](C)CO)C[C@@H]2C)cc1` the relative growth was inactive: 0.992. In the case of `COc1ccc(NC(=O)N(C)C[C@H]2OCCCC[C@H](C)Oc3ccc(NC(=O)Nc4ccc5c(c4)OCO5)cc3C(=O)N([C@@H](C)CO)C[C@@H]2C)cc1`, the relative growth is reported as inactive: 1.01. `C[C@H]1CN([C@@H](C)CO)C(=O)c2cccc(NC(=O)Nc3cccc4ccccc34)c2O[C@@H]1CN(C)C(=O)Nc1ccc(F)cc1` was tested, and the relative growth was inactive: 0.986. With `COc1ccc(CN(C)C[C@H]2OCCCC[C@@H](C)Oc3ccc(NC(=O)C4CCCCC4)cc3C(=O)N([C@H](C)CO)C[C@@H]2C)cc1` the relative growth was inactive: 0.989. `Clc1ccc(-c2csc(-c3ccc4c(c3)CCO4)n2)s1` was tested, and the relative growth was inactive: 0.993. With `Cc1cc(=O)[nH][nH]1` the relative growth was inactive: 0.995. For `Cc1noc(C)c1NC(=O)N(C)C[C@@H]1OCCCC[C@H](C)Oc2ccc(NC(=O)C3CCCCC3)cc2C(=O)N([C@H](C)CO)C[C@@H]1C`, the relative growth was inactive: 0.997. For `Cc1noc(C)c1NC(=O)Nc1cccc2c1O[C@H](CN(C)Cc1ccc(-c3ccccc3)cc1)[C@H](C)CN([C@H](C)CO)C2=O`, the relative growth was inactive: 0.984. For `CN1CCN(C(=O)Cn2cc(-c3ccc(C(=O)NO)cc3)nn2)CC1`, the relative growth was inactive: 0.989. For `C[C@H](CO)N1C[C@H](C)[C@@H](CN(C)C(=O)Nc2cccc3ccccc23)OCCCC[C@H](C)Oc2ccc(NC(=O)Nc3ccc(C(F)(F)F)cc3)cc2C1=O`, the relative growth was inactive: 1.04. With `COCCCNC(=O)[C@@]1(Cc2ccccc2N=[N+]=[N-])N=C(c2ccc(OCCCO)cc2)O[C@H]1c1ccccc1` the relative growth was inactive: 1.02. With `C[C@@H]1CN([C@@H](C)CO)C(=O)c2cc(NS(C)(=O)=O)ccc2O[C@H]1CN(C)C(=O)NC1CCCCC1` the relative growth was inactive: 0.927. In the case of `C[C@@H]1CN([C@H](C)CO)C(=O)c2cc(NC(=O)Nc3ccc4c(c3)OCO4)ccc2O[C@H]1CN(C)Cc1ccc(Oc2ccccc2)cc1`, the relative growth is reported as inactive: 1.01. For `NCCn1cccn1`, the relative growth was inactive: 1.01. `COC(=O)[C@@H](NC(=O)c1cccc(NC=O)c1O)[C@@H](C)O` was tested, and the relative growth was inactive: 1.04. For `C[C@@H](C(=O)N(C)C[C@H]1OCc2ccccc2-c2c(n(C)c3ccccc23)C(=O)N([C@@H](C)CO)C[C@@H]1C)c1ccccc1`, the relative growth was inactive: 0.98. In the case of `C[C@@H]1CCCCO[C@H](CN(C)S(=O)(=O)c2cn(C)cn2)[C@@H](C)CN([C@H](C)CO)C(=O)c2cc(NS(=O)(=O)c3cccs3)ccc2O1`, the relative growth is reported as inactive: 1.02. For `COCC#Cc1cnc2c(c1)C(=O)N([C@@H](C)CO)C[C@@H](C)[C@@H](CN(C)C(=O)Nc1ccccc1OC)O2`, the relative growth was inactive: 0.997.
